These results are taken from PubChem BioAssay AID1508623 (National Center for Advancing Translational Sciences (NCATS), 2021).

The whole screen tested about 48,000 compounds, of which about 450 (0.94%) were called active. Not shown: some 19% with an inconclusive outcome. Calls come from the whole dose curve; as a rule, active = well fitted inhibition curve with a large enough effect; inconclusive = small, poorly fitted or top-dose-only effect; inactive = no such curve, though single readings can be large or run the other way. The list shows a part of the results.

This experiment can be described thus: Primary qHTS for Identification of Small Molecule Inhibitors of Huntingtin Promoter Activity. Note: nearly all actives have a fitted effect of over 50% in size. As to conditions: HEK293 HTT promoter firefly luciferase reporter (activity 0% = vehicle and -100% = no light), 24 h; series mostly up to 57.5 µM; activity change, negative = inhibition: at the top concentration. Put shortly:
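Firefly luciferase readout (Dual-Glo, 10 min RT) after 24 h, 37 °C compound exposure (final up to 57.5 uM) of HEK293 reporter cells cultured 24 h beforehand; PTC124 at 50 uM final as control inhibitor; activity scaled vehicle 0%, zero RLU -100%.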
Turning to `COc1cccc(CNC(=O)c2ccc3c(c2)c(C)c(C)n3Cc2ccccc2)c1`, the “activity change, negative = inhibition” value is inactive: 9.11%.
Take `COc1ccc(CNC(=O)c2cc3cc4cc(OC)ccc4nc3o2)cc1`: the “activity change, negative = inhibition” value was inactive: 28.5%.
Take `Cc1nnc(N2CCC(C(=O)NC3CCCCC3)CC2)c2nn(-c3ccccc3)c(C)c12`: the “activity change, negative = inhibition” value was inactive: -4.47%.
For `NC(=O)C1CCN(C(=O)c2ccc(NC(=O)c3nsc4ccccc34)cc2)CC1`, the “activity change, negative = inhibition” value is inactive: -26.6%.
Under `Clc1cccc(-c2ccc(CNCCSc3nnnn3-c3ccccc3)o2)c1` stands inactive: -11.3%.
Under `O=C(c1ccccc1)N1CCN(CCc2ccncc2)CC1` stands inactive: -18%; under `Cc1cc(C)c(NC(=O)c2sc3nc(C)cc(C)c3c2NC(=O)c2ccccc2)c(C)c1`, inactive: -9.28%; under `CCOc1ccc(CCNC(=O)c2cn(C)c3ccc(S(=O)(=O)N4CCCCC4)cc3c2=O)cc1OCC`, inactive: 19.1%.
On to `COc1ccccc1C(=O)Nc1cccc(C(=O)OCc2cc(=O)n3cc(C)sc3n2)c1`, for which the “activity change, negative = inhibition” value was inactive: -16.8%.
Under `O=C(CCn1cnc2ccccc2c1=O)NCc1ccccc1Cl` stands inactive: -10.7%.
`CCc1nc2nc(C)c(NS(=O)(=O)c3ccc(C(C)(C)C)cc3)c(=O)n2[nH]1`: the “activity change, negative = inhibition” value is inactive: -6%.
The result for `COc1ccc(-c2nc(C)c(CCNS(=O)(=O)c3cc(Cl)ccc3Cl)s2)cc1` reads inactive: -25.3%.
Take `CCc1nn2c(=O)cc(COC(=O)COc3ccc(OC)cc3)nc2s1`: the “activity change, negative = inhibition” value is inactive: -13.8%.
In the case of `CCC(=O)N1c2ccccc2CC1C(=O)NCCc1ccc(OC)c(OC)c1` (stereo not drawn), the “activity change, negative = inhibition” value was inactive: -13.5%.
In the case of `Cc1c(C(=O)Nc2cccc(C(F)(F)F)c2)oc2ccc3c(c12)C(=O)CC(C)(C)O3`, the “activity change, negative = inhibition” value is inactive: 20.9%.
Regarding `COc1cccc(-n2c(=O)c3sc4ccccc4c3n(CC(=O)NC3CCCCC3)c2=O)c1`, the “activity change, negative = inhibition” value was inactive: 22.8%.
As to `Cc1c(NC(=O)c2ccc(-c3cccc([N+](=O)[O-])c3)o2)cccc1-c1nc2cc(Cl)ccc2o1`, the “activity change, negative = inhibition” value is inactive: 11.5%.
The result for `CCOC(=O)c1cc2c(=O)n3ccccc3nc2n(CCOC)c1=NC(=O)c1c(-c2ccccc2Cl)noc1C` reads inactive: -9.24%; that for `Cn1c(=O)oc2cc(S(=O)(=O)NCCC(=O)Nc3ccc(F)cc3F)ccc21`, inactive: 12.4%; that for `Cc1cc(OCC(=O)Nc2ncn[nH]2)ccc1Cl`, inactive: -2.4%.
As for `CCN(CC)S(=O)(=O)c1ccc(OC)c(-n2cnnn2)c1`, the “activity change, negative = inhibition” value is inactive: 0%.
As to `O=C(NCCC1=CCCCC1)c1ccc2c(c1)N(Cc1cccc(Cl)c1)C(=O)c1ccccc1S2=O` (stereo not drawn), the “activity change, negative = inhibition” value is inactive: -23%.
With `CCCCC(=O)NC1CC(=O)N(c2ccc3c(c2)OCCO3)C1` (stereo not drawn), the “activity change, negative = inhibition” value is inactive: -14.7%.
Consider `CC(C)CCNC(=O)Cc1ccc(NC(=O)N2CCCCc3ccccc32)cc1`, for which the “activity change, negative = inhibition” value is inactive: -12.3%.
`CCCCn1c(SCC(=O)c2ccccc2)nc2c(sc3ccccc32)c1=O`: the “activity change, negative = inhibition” value was inactive: -5.82%.
Under `CCN(C(=O)Cn1nnc2sc3c(c2c1=O)CCC(C(C)(C)C)C3)c1cccc(C)c1` (stereo not drawn) stands inactive: -13.7%.
For the molecule `CCc1ccc(CNC(=O)c2nn(-c3ccc(C)cc3)c(=O)c3c2c2ccccc2n3C)cc1`, the “activity change, negative = inhibition” value is inactive: -12.4%.
Regarding `CC(=O)c1ccc(N2CCN(C(=O)C3CCCN(S(=O)(=O)c4ccc(Br)s4)C3)CC2)cc1` (stereo not drawn), the “activity change, negative = inhibition” value was inactive: 0%.
Take `Cc1ccc(-n2nc3ccc(NC(=O)COc4ccccc4C)cc3n2)cc1`: the “activity change, negative = inhibition” value is inactive: 27.1%.
Turning to `CCC1CN(S(=O)(=O)c2cc(-c3cc(C)no3)ccc2C)c2cc(C)ccc2O1` (stereo not drawn), the “activity change, negative = inhibition” value was inactive: -13.3%.
Turning to `Cc1ccc(-n2nc(CO)c(C(=O)NCCCCc3ccccc3)n2)cc1C`, the “activity change, negative = inhibition” value is inactive: 4.82%.
Regarding `Cc1cc(C)c(NC(=O)Cn2nc(-c3ccncc3)ccc2=O)c(C)c1`, the “activity change, negative = inhibition” value was inactive: -4.13%.
As for `CCCn1c(=O)n(-c2ccccc2Cl)c(=O)c2sc3ccccc3c21`, the “activity change, negative = inhibition” value was inactive: -8.97%.
The result for `COc1cccc(Cn2c(CNC(=O)Cc3cccc(C)c3)nc3cccnc32)c1` reads inactive: -2.04%; that for `Cc1ccccc1NC(=O)Cn1c(=O)oc2cc(Br)ccc21`, inactive: -16.6%; that for `COc1ccc(N(CC(=O)Nc2cccc(Cl)c2C)S(=O)(=O)c2c(C)nn(C)c2C)cc1`, inactive: -24.8%.
Turning to `Cc1ccc(NC(=O)c2cccc3c2C(=O)N(C2CCCCC2)C3)c(C)c1`, the “activity change, negative = inhibition” value is inactive: -4.15%.
`Cc1c(C)n(C)c2ccc(C(=O)NCCCN3CCCCC3C)cc12` (stereo not drawn): the “activity change, negative = inhibition” value is inactive: -3.99%.
`O=C(c1cc2c(s1)-c1ccccc1OC2)N1CCN(c2ccccc2F)CC1`: the “activity change, negative = inhibition” value was inactive: 3%.
As to `Cc1ccc(C)c(NC(=O)Cn2cc(C(=O)c3ccco3)c3ccccc32)c1`, the “activity change, negative = inhibition” value is inactive: -58.3%.
`CCOC(=O)C1CCCN(c2cc(C)nc3c(-c4ccccc4OC)c(C)nn23)C1` (stereo not drawn): the “activity change, negative = inhibition” value is inactive: -39.7%.
Consider `CCc1c(C)sc(NC(=O)c2cc(-c3cccc(Cl)c3)on2)c1C#N`, for which the “activity change, negative = inhibition” value is inactive: -3.26%.
On to `COc1ccc(C)c2sc(N(Cc3cccnc3)C(=O)C3CCCCC3)nc12`, for which the “activity change, negative = inhibition” value is inactive: -27.6%.
Consider `CCCN(CCC)CCCNC(=O)C1CCN(S(=O)(=O)CC)CC1`, for which the “activity change, negative = inhibition” value was inactive: -17.2%.
For `CCCn1cc(S(=O)(=O)c2ccccc2)c(=O)c2cc(F)c(N3CCCC(C)C3)cc21` (stereo not drawn), the “activity change, negative = inhibition” value is inactive: -6.63%.
Take `COc1ccc(C)cc1NC(=O)c1c(C)oc2ncn(CC(C)C)c(=O)c12`: the “activity change, negative = inhibition” value is inactive: -16.3%.
For `Cc1ccc(CSCC(=O)N2CCN(c3ccccc3F)CC2)cc1`, the “activity change, negative = inhibition” value was inactive: -20.2%.
The result for `Cc1ccc(S(=O)(=O)CC(=O)Nc2sc3c(c2C#N)CCCC3)cc1` reads inactive: -14.4%.
